{"source": "PubChem BioAssay AID887", "about": "(National Center for Advancing Translational Sciences (NCATS), 2007)", "note": "In all, about 74,000 compounds went through this assay and about 1,100 (1.5%) were called active. The inconclusive results got no clear call from the source; some entries with a clear call stand among them for comparison. The call rests on the fitted dose curve; in most records, active means well fitted inhibition curve with a large enough effect; inconclusive means small, poorly fitted or top-dose-only effect; inactive means no such curve, though single readings can be large or run the other way. No potency is given beside an inconclusive call; the fits are too rough. On the % scale 0 is the no-effect control and ±100 the full control effect; potency means the concentration at half of the fitted maximal effect; tags describe the fitted curve by direction and shape."}
{"biological_target": "Polyunsaturated fatty acid lipoxygenase ALOX15 (Homo sapiens) (UniProt P16050)", "sequence (P16050 whole entry, looked up)": "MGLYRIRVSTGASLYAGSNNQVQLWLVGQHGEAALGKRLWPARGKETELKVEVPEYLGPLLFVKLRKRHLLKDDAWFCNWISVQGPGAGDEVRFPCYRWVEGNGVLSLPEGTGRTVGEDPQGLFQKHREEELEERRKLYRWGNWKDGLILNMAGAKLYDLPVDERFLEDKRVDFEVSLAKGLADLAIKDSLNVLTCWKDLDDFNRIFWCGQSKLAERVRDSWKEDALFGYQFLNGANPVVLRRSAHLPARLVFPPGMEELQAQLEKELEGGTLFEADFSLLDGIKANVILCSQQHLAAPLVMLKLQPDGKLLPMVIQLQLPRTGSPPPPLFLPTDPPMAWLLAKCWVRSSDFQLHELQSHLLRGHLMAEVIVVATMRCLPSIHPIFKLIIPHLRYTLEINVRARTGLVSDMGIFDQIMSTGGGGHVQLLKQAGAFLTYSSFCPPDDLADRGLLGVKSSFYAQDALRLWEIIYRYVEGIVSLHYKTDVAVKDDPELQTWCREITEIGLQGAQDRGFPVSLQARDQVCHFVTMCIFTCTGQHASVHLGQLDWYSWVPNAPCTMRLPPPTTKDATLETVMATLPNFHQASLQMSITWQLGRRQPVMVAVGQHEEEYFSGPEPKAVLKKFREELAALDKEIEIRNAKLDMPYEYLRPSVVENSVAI", "assay": "qHTS Assay for Inhibitors of 15-hLO (15-human lipoxygenase); further: nearly all actives have a fitted effect of over 55% in size", "conditions": "purified 15hLO-1, xylenol orange hydroperoxide absorbance; activity change, negative = inhibition: at 57.1 µM (top of the series) unless noted", "summary_of_the_method": "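Compounds were preincubated 15 min at room temperature with 40 nM purified human enzyme (25 mM Hepes pH 7.5, 0.01% Triton X-100); 50 uM arachidonic acid reacted 6 min. Fe-xylenol orange detection, 30 min, absorbance ratio 573/405 nm.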"}
{"smiles": "COC(=O)C1=C(CN2CCCc3ccccc32)NC(=O)NC1c1ccc(F)cc1", "note": "(stereo unspecified)", "Potency": "inconclusive [inhibitor, single point]"}
{"smiles": "Cc1cccc(CSc2nncc(=O)[nH]2)c1", "activity change, negative = inhibition": "inactive: 14.8%"}
{"smiles": "O=C(Cc1ccccc1)Nc1nc2ccc(Cl)cc2c2nc(-c3ccco3)nn12", "Potency": "inconclusive [inhibitor, partial curve, poor fit]"}
{"smiles": "CC(C)CCNC(=O)c1cnn2c(C(F)(F)F)cc(-c3ccco3)nc12", "Potency": "inconclusive [inhibitor, single point]"}
{"smiles": "COC(=O)N(C)c1nc2ccccc2s1", "Potency": "inconclusive [inhibitor, partial curve]"}
{"smiles": "Cc1ccc(-n2nc(C)c3c2OC(N)=C(C#N)C3c2ccco2)cc1", "note": "(stereo unspecified)", "Potency": "inconclusive [inhibitor, partial curve]"}
{"smiles": "CCOC(=O)Nc1c(C(=O)OC)[nH]c2cc(OC)ccc12", "Potency": "inconclusive [inhibitor, partial curve]"}
{"smiles": "Cc1ccc(-c2nc(C#N)c(NCc3cccc4c3OCO4)o2)cc1", "Potency": "inconclusive [inhibitor, partial curve]"}
{"smiles": "CCN(CC)c1ccc(NC(=O)c2ccccc2F)cc1", "activity change, negative = inhibition": "inactive: -16.9%"}
{"smiles": "c1cc2c3c(c1)c1c(n3CCNC2)CCCC1", "Potency": "inconclusive [inhibitor, single point]"}
{"smiles": "CCCCc1nc2c(c3c1CC(C)OC3)CN(CCC(C)C)CC2", "note": "(stereo unspecified)", "activity change, negative = inhibition": "inactive: 3.5% [at 11.4 µM]"}
{"smiles": "CCN(CC(=O)NCc1ccccn1)S(=O)(=O)c1ccc(Cl)cc1", "Potency": "inconclusive [inhibitor, single point]"}
{"smiles": "Cc1ccc(C)n1-c1cccc(N)c1", "Potency": "inconclusive [inhibitor, partial curve]"}
{"smiles": "Oc1ccc(Br)cc1/C=N/n1cnc2ccccc21", "activity change, negative = inhibition": "inactive: -15.4%"}
{"smiles": "COc1ccc(NS(=O)(=O)c2ccc3c(c2)Cc2ccccc2-3)cn1", "Potency": "inconclusive [inhibitor, single point]"}
{"smiles": "C1=CC2c3ccccc3NC(c3ccncc3)C2C1", "note": "(stereo unspecified)", "Potency": "inconclusive [inhibitor, single point]"}
{"smiles": "CCOC(=O)c1c(-c2ccc(C)o2)csc1NC(=O)COC(=O)c1cccs1", "Potency": "inconclusive [inhibitor, partial curve]"}
{"smiles": "NS(=O)(=O)c1ccc(N=Nc2nc3[nH]c(=O)[nH]c(=O)c3[nH]2)cc1", "Potency": "inconclusive [inhibitor, single point]"}
{"smiles": "CCOC(=O)N1CCN(c2ccc(C(=O)c3ccccc3)cc2F)CC1", "Potency": "inconclusive [inhibitor, partial curve, poor fit]"}
{"smiles": "O=C(O)C12CC3(C(=O)O)CC(C(=O)O)(CC(C(=O)O)(C1)C3=O)C2=O", "activity change, negative = inhibition": "inactive: 2.45% [at 11.4 µM]"}
{"smiles": "CCOC(=O)C1=C(C)OC(N)=C(C#N)C1c1c(C)nn(-c2ccccc2)c1Cl", "note": "(stereo unspecified)", "Potency": "inconclusive [inhibitor, full curve, poor fit]"}
{"smiles": "CCCC(=O)N1CCN(c2ccc(NC(=O)c3ccccc3)cc2)CC1", "activity change, negative = inhibition": "inactive: -10.1%"}
{"smiles": "CN(C)c1ccc(-c2nc(NCCN3CCOCC3)c3ccccc3n2)cc1", "Potency": "inconclusive [inhibitor, single point]"}
{"smiles": "CC(C)=CCc1c2c(c3occ(-c4ccc(O)cc4)c(=O)c3c1O)C=CC(C)(C)O2", "Potency": "inconclusive [inhibitor, partial curve]"}
{"smiles": "O=C(OCc1cc(=O)n2c(n1)sc1ccccc12)c1ccc2c(=O)n3c(nc2c1)CCC3", "Potency": "inconclusive [inhibitor, partial curve]"}
{"smiles": "O=C(Nc1ccc(N2CCOCC2)cc1)Nc1ccc2nc(-c3ccco3)c(-c3ccco3)nc2c1", "Potency": "active: 3.98 µM"}
{"smiles": "c1ccc2c(c1)CCN(c1nc3cc4c(cc3s1)OCO4)C2", "Potency": "active: 10 µM"}
{"smiles": "Nc1ncnc2oc(-c3ccco3)c(-c3ccco3)c12", "Potency": "active: 2.51 µM"}
{"smiles": "O=C(Cn1nnc(-c2ccccc2-n2cnnn2)n1)NCc1ccccc1", "activity change, negative = inhibition": "inactive: 2.2%"}
{"smiles": "Cc1c(O)ccc(C(=O)CN2C(=O)c3ccccc3C2=O)c1O", "Potency": "inconclusive [inhibitor, single point]"}
{"smiles": "CCOc1ccccc1O[C@@H](c1ccccc1)[C@@H]1CNCCO1", "activity change, negative = inhibition": "inactive: -4.9% [at 25.6 µM]"}
{"smiles": "CCCCSC1=C(C#N)C(c2ccccc2C)C(C(=O)OCC)C(=O)N1", "note": "(stereo unspecified)", "Potency": "inconclusive [inhibitor, single point]"}
{"smiles": "C=CCc1cccc(CNc2nc3ccccc3n2CCC)c1O", "Potency": "inconclusive [inhibitor, partial curve]"}
{"smiles": "N#Cc1ccc(NC(=O)c2cc3cc4c5c(c3oc2=N)CCCN5CCC4)cc1", "Potency": "inconclusive [inhibitor, single point]"}
{"smiles": "Cc1ccc(S(=O)(=O)c2nc(N3CCOCC3)sc2Cl)cc1", "Potency": "inconclusive [inhibitor, single point]"}
{"smiles": "COc1cc2c(cc1OC)-c1cc(OCc3cccnc3)nc(=O)n1CC2", "activity change, negative = inhibition": "inactive: 10%"}
{"smiles": "CC1(C)CC(Nc2ccc(Nc3ccccc3)cc2)CC(C)(C)N1", "Potency": "inconclusive [inhibitor, single point]"}
{"smiles": "CCn1c(N)c(C(=O)N2CCOCC2)sc1=S", "Potency": "inconclusive [inhibitor, single point]"}
{"smiles": "O=C(Nc1ccc2c(c1)OCO2)c1ccc(Br)s1", "Potency": "inconclusive [inhibitor, single point]"}
{"smiles": "CCOC(=O)c1ccc2[nH]c3c(c2c1)CCCCC3=O", "Potency": "inconclusive [inhibitor, single point]"}
{"smiles": "COc1cc2c(cc1NCc1ccccn1)oc1ccccc12", "Potency": "inconclusive [inhibitor, single point]"}
{"smiles": "COc1ccc(CC(=O)Nc2ccc(N3CCN(c4ccc(OC)cc4)CC3)c(C#N)c2)cc1", "Potency": "inconclusive [inhibitor, single point]"}
{"smiles": "CC[C@]1(O)C[C@H]2CN(CCc3c([nH]c4ccccc34)[C@](C(=O)OC)(c3cc4c(cc3OC)N(C=O)[C@H]3[C@@](O)(C(=O)OC)[C@H](OC(C)=O)[C@@]5(CC)C=CCN6CC[C@]43[C@H]65)C2)C1", "Potency": "inconclusive [inhibitor, full curve]"}
{"smiles": "CCCCCCCCCCCCCC(=O)O", "activity change, negative = inhibition": "inactive: -14.8%"}
{"smiles": "CC(C)(C)CC(C)(C)c1cc(O)c(O)c(CN2CCCCC2)c1", "Potency": "active: 0.398 µM"}
{"smiles": "CCCCCCCCCCCC1=C(O)C(=O)C=C(O)C1=O", "Potency": "active: 5.01 µM"}
{"smiles": "N#Cc1ccc(COC(=O)Cn2nnc(-c3ccccc3)n2)cc1", "activity change, negative = inhibition": "inactive: -11.8%"}
{"smiles": "c1csc(-c2nn3c(C4COc5ccccc5O4)nnc3s2)c1", "note": "(stereo unspecified)", "Potency": "inconclusive [inhibitor, full curve]"}
{"smiles": "N#CCCn1c(=O)c(-c2ccccc2)nc2cnc(Oc3cccc(Cl)c3)nc21", "activity change, negative = inhibition": "inactive: -7.51%"}
{"smiles": "COc1ccc(-c2nc(-c3ccncc3)no2)cc1OC", "activity change, negative = inhibition": "inactive: -1.94%"}
{"smiles": "COc1ccc2c(C(F)(F)F)cc(=O)oc2c1C", "activity change, negative = inhibition": "inactive: -4.94%"}
{"smiles": "COc1ccc(-c2nsc(SCC(=O)Nc3cc(C)on3)n2)cc1", "Potency": "inconclusive [inhibitor, partial curve]"}
{"smiles": "CCC(C)NC(=O)c1c(N)n(/N=C/c2cccnc2)c2nc3ccccc3nc12", "note": "(stereo unspecified)", "activity change, negative = inhibition": "inactive: -19.2%"}
{"smiles": "Cc1ccc(C)n1NC(=O)c1ccco1", "Potency": "inconclusive [inhibitor, single point]"}
{"smiles": "CCOC(=O)C1=C(C)NC(C)=C(C(=O)OCC)C1", "Potency": "active: 10 µM"}
{"smiles": "CN(C)c1ccc(CNC(=O)[C@@]2(C)C=C[C@@H](Cc3ccccc3)N2C)cc1", "Potency": "inconclusive [inhibitor, single point]"}
{"smiles": "COc1ccc2[nH]cc(CCNc3cc(-c4ccc5c(c4)OCO5)ncn3)c2c1", "Potency": "active: 12.6 µM"}
{"smiles": "CCOC(=O)C(NC(=O)CC)(Nc1ccc(S(=O)(=O)Nc2ncccn2)cc1)C(F)(F)F", "note": "(stereo unspecified)", "Potency": "inconclusive [inhibitor, single point]"}
{"smiles": "Cc1nc2cc(NC(=O)NCc3ccc4c(c3)OCO4)ccc2o1", "activity change, negative = inhibition": "inactive: 6.28%"}
{"smiles": "CCCN1C(=O)c2cc(C(=O)O)ccc2C1O", "note": "(stereo unspecified)", "Potency": "active: 20 µM"}
{"smiles": "CCOc1ccc(C(C)=O)cc1CSc1nnc(-c2cccs2)n1CC1CCCO1", "note": "(stereo unspecified)", "activity change, negative = inhibition": "inactive: -1.4%"}
{"smiles": "COc1ccccc1N1CCN(C[C@@H](O)COc2cccc3ccccc23)CC1", "Potency": "inconclusive [inhibitor, single point]"}
{"smiles": "O=C(COc1ccccc1Cl)Nc1ccc2c(c1)OCCO2", "activity change, negative = inhibition": "inactive: -17.1%"}
{"smiles": "C=C(C)COc1ccc(-c2n[nH]c(C)c2Oc2ccccc2OC)c(O)c1", "Potency": "inconclusive [inhibitor, full curve]"}
{"smiles": "O=C(c1cnccn1)N1CCC2(CCCN(c3ccc(-c4ccccc4)cc3)C2)CC1", "Potency": "inconclusive [inhibitor, single point]"}
{"smiles": "Cc1cccn2c(=O)c3cc(C#N)c(=NC(=O)c4ccncc4)n(CCCOC(C)C)c3nc12", "Potency": "inconclusive [inhibitor, single point]"}
{"smiles": "O=C(Nc1ccccc1-c1ccccc1)c1cnccn1", "Potency": "inconclusive [inhibitor, single point]"}
{"smiles": "COC(=O)c1nnn(-c2nonc2N)c1CSc1ccccn1", "Potency": "inconclusive [inhibitor, single point]"}
{"smiles": "CC[C@@]1(O)CC2CN(CCc3c([nH]c4ccccc34)[C@](C(=O)OC)(c3cc4c(cc3OC)N(C)C3[C@@](O)(C(=O)OC)C(OC(C)=O)[C@]5(CC)C=CCN6CC[C@@]43C65)C2)C1", "note": "(stereo partly specified)", "Potency": "inconclusive [inhibitor, single point]"}
{"smiles": "O=C(Nc1ccccc1N1CCCC1)c1ccc2c(c1)OCO2", "Potency": "inconclusive [inhibitor, single point]"}
{"smiles": "O=C(CN(CCc1ccccc1)C(=O)Cn1nnc(-c2cccs2)n1)NCc1ccco1", "activity change, negative = inhibition": "inactive: 10.4%"}
